# Test results from article PMC6919601, “Identification of Plasmodium dipeptidyl aminopeptidase allosteric inhibitors by high throughput screening” (PLoS ONE, 2019).
# Where “and” joins values, the source holds several entries; their conditions need not be identical. Identical values can stand only once. About 230 (0.21%) of roughly 110,000 compounds showed an effect of 50% or more. Some of the results follow.
# Molecular target: DPAP1 (Plasmodium falciparum, UniProt Q8IIJ9)
# Test: primary screen, percent inhibition; read by cleavage of a fluorogenic dipeptide substrate; higher = more effect of the substance
# Parameters: species or system P. falciparum D10 trophozoite lysates; single well
# 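Also: 30 min substrate incubation versus DMSO and 10 µM JCP410 controls.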
# Chain of DPAP1 (Q8IIJ9 whole entry, looked up): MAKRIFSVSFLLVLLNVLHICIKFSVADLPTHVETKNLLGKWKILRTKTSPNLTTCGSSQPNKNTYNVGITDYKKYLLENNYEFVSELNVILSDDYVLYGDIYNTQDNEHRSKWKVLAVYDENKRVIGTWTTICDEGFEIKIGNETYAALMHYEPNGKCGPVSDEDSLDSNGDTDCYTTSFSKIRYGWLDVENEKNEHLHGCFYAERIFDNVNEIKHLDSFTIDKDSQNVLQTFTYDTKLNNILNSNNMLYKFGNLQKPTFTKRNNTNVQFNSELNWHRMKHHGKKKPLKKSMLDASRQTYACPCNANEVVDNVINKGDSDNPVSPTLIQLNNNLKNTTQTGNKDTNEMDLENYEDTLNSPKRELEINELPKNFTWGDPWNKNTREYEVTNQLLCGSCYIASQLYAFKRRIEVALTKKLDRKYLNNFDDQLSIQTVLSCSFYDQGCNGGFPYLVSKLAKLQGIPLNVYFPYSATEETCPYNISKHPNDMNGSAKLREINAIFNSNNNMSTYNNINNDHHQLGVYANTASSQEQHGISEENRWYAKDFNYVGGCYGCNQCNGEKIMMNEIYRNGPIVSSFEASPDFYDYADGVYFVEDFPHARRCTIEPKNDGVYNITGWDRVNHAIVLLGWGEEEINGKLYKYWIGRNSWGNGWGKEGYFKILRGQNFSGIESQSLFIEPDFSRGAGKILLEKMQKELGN
row,Compound,% Inhibition @ 10 uM
1,Cc1ccc(C(C)C)c(OCC(=O)Nc2cccc(Cl)c2C)c1,1.14%
2,Cc1ccc(/C=c2\sc3nc(-c4ccccc4C)nn3c2=O)o1,-1.18%
3,COc1ccc(CNC(=O)CN(C)S(=O)(=O)c2ccc(-c3ccc(O)nn3)s2)cc1,-2.16%
4,Cc1ccc(-c2nn(CCC(=O)NCC3CCCO3)c(=O)c3ccccc23)cc1 (stereo not drawn),-2.98%
5,CC(C)(C)NCC(O)COc1ccc(C23CC4CC(CC(C4)C2)C3)cc1 (stereo not drawn),-2.55%
6,O/C(=C\c1nc2ccccc2[nH]1)c1cc(Cl)c(O)cc1O,-2.91%
7,CC1CC(C)CN(CCCNC(=O)c2ccc(CS(=O)(=O)Cc3ccccc3F)o2)C1 (stereo not drawn),-0.971%
8,COc1ccc(CCNc2ncnc3onc(-c4ccc(Cl)cc4)c23)cc1OC,-2.19%
9,COCCNC(=O)c1cc(-c2cccnc2)nc2ccc(S(=O)(=O)N3CCCCCC3)cc12,1.62%
10,N#CCNC(=O)[C@@H](Cc1c(F)c(F)c(F)c(F)c1F)NC(=O)OCc1ccccc1,-3.14%
11,C=CCN1C(=O)N/C(=C/c2ccc(-c3cccc(Cl)c3)o2)C1=O,6.71%
12,Cc1ccc(Nc2nc(N)nc(CN3CCCCCC3)n2)c(C)c1,-7.15%
13,CCOc1ccccc1NC(=O)CN(c1ccccc1F)S(C)(=O)=O,4.63% and 3.72%
14,COc1ccc(/C=C2\SC(N)=NC2=O)cc1O,-3.33%
15,O=S(=O)(c1cc(Cl)ccc1Cl)N1CCN(C/C=C/c2ccccc2)CC1,6.06%
16,COc1ccc(CC2(C)OC(c3ccncc3)=NN2C(C)=O)cc1 (stereo not drawn),-6.92%
17,Cn1c(=O)c2c(nc(S)n2CC2CC2)n(C)c1=O,1.81%
18,CN1C(=O)/C(=C\c2cccc(F)c2)N=C1SCC(=O)Nc1ccc(Cl)cc1,4.28%
19,Cc1nc2cc(NC(=O)NC(C)(C)C)ccc2n1C,-2.37%
20,Oc1nc2c(-c3c(F)cccc3Cl)nnn2c2ccccc12,-3.13%
21,CCOc1ccc(S(=O)(=O)n2cc(F)c(=O)[nH]c2=O)cc1,-7.7%

row,Compound,% Inhibition @ 10 uM
1,CC(C)(C#N)NC(=O)Nc1ccccc1,6.47%
2,COc1ccc(C(=O)COc2ccc(NC(=O)c3cccs3)cc2)cc1,2.64%
3,Nc1cnn(Cc2cccc3ccccc23)c1,-0.553%
4,CCN(CC)C(=O)c1ccc(N/C=C2/C(=O)NC(=O)N(c3ccccc3)C2=O)cc1,-2.89%
5,CCCNC(=O)c1cc(-c2cc(OC)ccc2OC)nc2ccccc12,7.37%
6,CCN(CC)CCCCCOc1ccc(C)cc1,-1.25%
7,COC(=O)C1=CN(C2CC2)C=C(C(=O)OC)C1c1ccc(OC)c(OC)c1OC,-3.06%
8,O=C(CN1C(=O)S/C(=C/c2cccc(F)c2)C1=O)N1CCN(c2ccccc2)CC1,-1.44%
9,COc1ccc(N(CC(=O)N2CCc3ccccc3C2)S(=O)(=O)c2ccccc2)cc1OC,-7.69%
10,COc1ccc(Cl)cc1NC(=O)CC1NCCNC1=O (stereo not drawn),0.843%
11,O=C(CCC(=O)Nc1cccc(C(F)(F)F)c1)Nc1cccc(C(F)(F)F)c1,-5.13%
12,COc1ccc(C2C(C(=O)c3cc4ccccc4o3)=C(O)C(=O)N2CCN2CCOCC2)cc1OC (stereo not drawn),-3.13%
13,O=[N+]([O-])c1ccc(N2CCN(Cc3cccc(Cl)c3)CC2)cc1,-1.93%
14,O=[N+]([O-])c1cccc(CN2CCN(c3ccc(F)cc3)CC2)c1,-0.294%
15,Cc1cc(C(=O)O)c2c(C)nn(-c3cccc(Cl)c3C)c2n1,9.5%
16,O=C1NC(=O)N(c2cccc(Cl)c2)C(=O)/C1=C\Nc1ccccn1,-0.366%
17,CCCCS(=O)C1CCCCC1OC(=O)c1ccccc1 (stereo not drawn),-3.48%
18,O=C(O)CCC(=O)Nc1sc2c(c1C(=O)Nc1ccccc1)CCCC2,-4.76%
19,CC1=C(C(=O)Nc2ccccc2)C(c2ccc(C)o2)n2c(s/c(=C/c3cn(C)nc3C)c2=O)=N1 (stereo not drawn),5.24%
20,Cc1ccc(Nc2nc(N)nc(CSc3nccn3C)n2)c(C)c1,1.35%
21,N#CC1=C(N)OC2=C(C(=O)CCC2)C1c1cccc2ccccc12 (stereo not drawn),-4.94%

row,Compound,% Inhibition @ 10 uM
1,CCOc1nc(NC(=O)NC(=O)c2ccccc2)nc(-c2ccccc2)n1,-2.5%
2,O=C(Nc1cccc(N2C(=O)C3C4C=CC(C4)C3C2=O)c1)c1ccccc1 (stereo not drawn),0.812%
3,O=C(NCc1ccc2c(c1)OCO2)c1ccc2c(c1)C(=O)N(Cc1cccnc1)C2=O,-5.54%
4,Cc1cc(C(=O)NCCc2ccccc2)c2c(C)nn(-c3ccccc3Cl)c2n1,3.75%
5,CCC(C)c1ccc(OCCCN2CCN(C)CC2)cc1 (stereo not drawn),3.25%
6,COc1ccc(OC)c(N(CC(=O)NC2CC2)S(=O)(=O)c2ccc(C)cc2)c1,-2.19%
7,CC12CCC3c4cc(Br)c(O)cc4CCC3C1CCC2O (stereo not drawn),-0.357%
8,CCCc1cc(O)nc(SCC(=O)Nc2ccc(OC)cc2)n1,-4.12%
9,CCn1ncc(Br)c1C(=O)NCc1ccccc1OC,17.5%
10,Cc1ccc(C(=O)Nc2ccccc2N2CCCC2)cc1,2.4%
11,COc1ccc(-c2nnc(S)n2-c2ccccc2)cc1,4.35%
12,COC(=O)c1cc(S(=O)(=O)NCC2CCN(Cc3ccc(Cl)cc3)CC2)c[nH]1,5.88%
13,COc1ccc(C(=O)CCc2nc3ccccc3s2)cc1,1.62%
14,Cc1cc(=O)n2nc(N3CCCC3C(=O)NCc3ccc(OC(C)C)cc3)sc2n1 (stereo not drawn),4.55%
15,Cc1ccc(S(=O)(=O)N2CCCC2CO)cc1 (stereo not drawn),-1.6%
16,CCN(CC)C(=O)C1=CC(c2ccc(C)cc2)=NS(=O)(=O)N1C,2.11%
17,O=C(NC1CCCCC1)[C@H](Cc1ccccc1)N1Cc2ccccc2C1=O,2.93%
18,O=C(NC1CCCCC1)C12CC3CC(C1)CC(n1cncn1)(C3)C2,-11.9%
19,COc1ccccc1/C=C/C1=NN(c2cccc(F)c2)C(c2ccccc2OC)C1 (stereo not drawn),-4.61%
20,Cc1ccc(/C(O)=C/c2nc3nonc3nc2O)cc1C,0.738%
21,COc1cccc(/C=C2\N=C(c3ccc(Br)cc3)OC2=O)c1OC,1.64%
